# Data published in PubChem BioAssay AID938 (National Center for Advancing Translational Sciences (NCATS), 2007).
# Among all 73,000 compounds or so, about 1,800 (2.5%) were called active. This list was built around the results that the source calls inconclusive (neither active nor inactive); the mix of calls is not that of the screen. Calls come from the whole dose curve; as a rule, active = well fitted activation curve with a large enough effect; inconclusive = small, poorly fitted or top-dose-only effect; inactive = no such curve, though single readings can be large or run the other way. Potencies of inconclusive entries are left out as doubtful fits.
# Assay: qHTS Assay for Agonists of the Thyroid Stimulating Hormone Receptor: Activators of Intracellular cAMP Concentrations in Parental HEK 293; note: nearly all actives have a fitted effect of over 55% in size; for activation: % of control where 0% means no effect
# Details: parental HEK293 CNG cAMP sensor, membrane potential fluorescence; activation: at 57.1 µM (top of the series) unless noted
# Summary of the method: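 Parental HEK 293 cells stably expressing a cAMP-gated CNG channel were loaded with membrane potential dye containing 100 uM RO 20-1724 for 60 min. Compound added for 30 min; depolarization read as fluorescence intensity at 590 nm.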
# Potency is the fitted concentration of half-maximal effect; tags give direction and shape of the fitted curve.
Structure (SMILES),activation,Potency
N#CC(C(=O)OC1CCCCC1)c1nc2ccccc2nc1N1CCOCC1 (centres undefined),inactive: 28.8%,
CC(=O)Nc1ccc(N2CCN(C(=O)c3cccs3)CC2)cc1,inactive: 0.118%,
CCCCN(C)S(=O)(=O)c1ccc(C(=O)Nc2nnc(-c3cccs3)o2)cc1,inactive: -0.767%,
Cc1nc(SCC(=O)Nc2ccc3c(c2)OCCO3)c2oc3ccccc3c2n1,inactive: 19.9%,
Nc1ccc(N2CCCCCC2)cc1,inactive: -26%,
CC[C@]1(O)C[C@@H]2CN(CCc3c([nH]c4ccccc34)[C@](C(=O)OC)(c3cc4c(cc3OC)N(C=O)[C@H]3[C@@](O)(C(=O)OC)[C@H](C(=O)OC)[C@@]5(CC)C=CCN6CC[C@]43[C@H]65)C2)C1,inactive: 4.37%,
CCCC(=O)Nc1c(C(=O)OCC)[nH]c2ccccc12,,"inconclusive [activator, single point]"
Cc1ccc(-c2nnc(CSc3nnc4c5c(C)c(C)sc5nc(C(C)C)n34)o2)cc1,inactive: 22.4%,
COc1ccc(-n2c(Cc3cccn3C)nnc2SCC(=O)N2CCOCC2)cc1,,"inconclusive [activator, single point]"
Cc1nn2c(nc1=O)SCC(c1ccccc1)=N2,,"inconclusive [activator, single point]"
COC(=O)[C@H]1C[C@@H]1[C@H](NS(=O)(=O)c1ccc2ccccc2c1)c1ccccc1,,"inconclusive [activator, partial curve]"
COC(=O)c1cnn(-c2ccc(C)c(C)c2)c1-n1cccc1,,"inconclusive [activator, partial curve]"
COC(=O)c1ccc(CSc2nnnn2-c2ccc(C)cc2C)o1,,"inconclusive [activator, partial curve]"
Cc1ccc2cc3cc(C(=O)N4CCCCC4C)oc3nc2c1 (centres undefined),inactive: 19.7%,
Cc1onc(-c2ccccc2Cl)c1C(=O)OCn1nnc2ccccc2c1=O,,"inconclusive [activator, single point]"
Cc1cccc2cc(CN(Cc3cccs3)Cc3nnnn3Cc3ccccc3)c(=O)[nH]c12,,"inconclusive [activator, single point]"
O=C(CN1CCOCC1)N1CCc2ccccc2C(c2ccccc2)C1 (centres undefined),,"inconclusive [activator, single point]"
CCC(=O)NCCn1c(C)cc2ccccc21,,"inconclusive [activator, single point]"
O=C1C2=C(Nc3cc([N+](=O)[O-])ccc3N2)O[C@@H]1c1ccc([C@H]2OC3=C(Nc4ccc([N+](=O)[O-])cc4N3)C2=O)cc1,inactive: 5.31% [at 11.4 µM],
